{"source": "PubChem BioAssay AID504706", "about": "(National Center for Advancing Translational Sciences (NCATS), 2011)", "note": "The whole screen tested about 320,000 compounds, of which about 200 (0.062%) were called active. Inconclusive results, whose numbers are uncertain, are shown with a selection of clear calls. Calls come from the whole dose curve; as a rule, active = well fitted activation curve with a large enough effect; inconclusive = small, poorly fitted or top-dose-only effect; inactive = no such curve, though single readings can be large or run the other way. Potencies of inconclusive entries are left out as doubtful fits. Potency is the fitted concentration of half-maximal effect; tags give direction and shape of the fitted curve.", "data": [{"test": "qHTS assay for re-activators of p53 using a Luc reporter; note: nearly all actives have a fitted effect of over 45% in size; for activity change, positive = activation: % of control where 0% means no effect", "settings": "H1299 p53-A138V BP100-luciferase reporter, luminescence, 24 h; series mostly up to 92.2 µM; activity change, positive = activation: at the top concentration", "in_short": "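H1299 (p53-null), stable ts p53-A138V + BP100-Luc; 1000 cells/well, Opti-MEM/10% FBS; cpd 4 pt, 1:5; 24 h, 37 deg C, 5% CO2; detection reagent 10 min RT; luminescence.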", "values": [{"smiles": "O=C(NNC(=O)C1CC2CCC1C2)c1ccccc1", "note": "(configuration not stated)", "Potency": "inconclusive [activator, partial curve, poor fit]"}, {"smiles": "COc1cccc(C(=O)Nc2ncc3c(n2)CC(C)CC3=O)c1", "note": "(configuration not stated)", "Potency": "inconclusive [activator, single point]"}, {"smiles": "CN(CC(=O)Nc1cccc(S(=O)(=O)N(C)C)c1)Cc1ccccc1", "Potency": "inconclusive [activator, full curve, poor fit]"}, {"smiles": "O=C(c1cc(-c2ccccc2)nc2ccccc12)N1CCN(C2CCS(=O)(=O)C2)CC1", "note": "(configuration not stated)", "activity change, positive = activation": "inactive: 1.03%"}, {"smiles": "O=C1c2ccccc2C(Nc2ccccc2)N1c1ccc(Cl)cn1", "note": "(configuration not stated)", "Potency": "inconclusive [activator, single point]"}, {"smiles": "CC1CN(S(=O)(=O)c2ccc(C(=O)Nc3nnc(-c4ccco4)o3)cc2)CC(C)O1", "note": "(configuration not stated)", "activity change, positive = activation": "inactive: 19.5%"}, {"smiles": "CC(NC1CCCCC1)C(=O)NN=C(c1ccccc1)c1ccccc1", "note": "(configuration not stated)", "activity change, positive = activation": "inactive: -0.69%"}, {"smiles": "Cc1cc(N)n2ncc(-c3ccccc3)c2n1", "Potency": "inconclusive [activator, partial curve, poor fit]"}, {"smiles": "CCc1nnc(NS(=O)(=O)c2ccc(NC(=O)Nc3ccc(OC)cc3)cc2)s1", "Potency": "inconclusive [activator, full curve, poor fit]"}, {"smiles": "CCN(C(=O)c1cccs1)c1nnc(-c2ccncc2)s1", "activity change, positive = activation": "inactive: 16.5%"}, {"smiles": "Cc1ccc(C(=O)Cn2nnc3ccccc32)cc1C", "Potency": "inconclusive [activator, full curve, poor fit]"}, {"smiles": "COc1cccc(-n2c(=O)c3cc(OC)c(OC)cc3n(CC(=O)Nc3cc(C)[nH]n3)c2=O)c1", "activity change, positive = activation": "inactive: 4.55%"}, {"smiles": "CCOC(=O)N1CCN(C(=O)COC(=O)COc2c(C)cc(C)cc2C)CC1", "Potency": "inconclusive [activator, single point]"}, {"smiles": "CSc1nc2sc3c(c2c(=O)[nH]1)CCCC3", "Potency": "inconclusive [activator, partial curve, poor fit]"}, {"smiles": "Cc1[nH]n(C(N)=S)c(=O)c1N=Nc1cccc(Cl)c1", "Potency": "inconclusive [activator, full curve, poor fit]"}, {"smiles": "COc1ccc(/C=N/N2C(=O)C3C4C=CC(C4)C3C2=O)cc1[N+](=O)[O-]", "note": "(configuration not stated)", "Potency": "inconclusive [activator, full curve, poor fit]"}, {"smiles": "O=C(Nc1ncccc1O)c1ccc(S(=O)(=O)N2CCCCCC2)cc1", "Potency": "inconclusive [activator, full curve, poor fit]"}, {"smiles": "CCNC(=S)N/N=C/c1ccc(-c2ccccc2)o1", "Potency": "inconclusive [activator, partial curve, poor fit]"}, {"smiles": "O=C(CCCc1c[nH]c2ccccc12)Nc1ccc2ccccc2c1", "Potency": "inconclusive [activator, partial curve, poor fit]"}, {"smiles": "CCn1nc(NC(=O)c2ccccn2)c2cc3cc(C)ccc3nc21", "activity change, positive = activation": "inactive: 2.1%"}, {"smiles": "Fc1ccc(CNC(=S)NCc2ccccc2)cc1", "activity change, positive = activation": "inactive: 1.37%"}, {"smiles": "c1cn2c(NC3CCCC3)c(-c3ccc(N4CCOCC4)cc3)nc2cn1", "Potency": "inconclusive [activator, partial curve, poor fit]"}, {"smiles": "Cc1nn(-c2cccc(C(F)(F)F)c2)c(Cl)c1/C=N/Nc1cccc(C(=O)O)c1", "Potency": "inconclusive [activator, partial curve, poor fit]"}, {"smiles": "COCCn1c(C)cc(C(=O)COC(=O)c2ccc3ncsc3c2)c1C", "Potency": "inconclusive [activator, partial curve, poor fit]"}, {"smiles": "NC(=O)NC[C@@H]1CC[C@@H](Cc2ccc(-c3ccccc3)cc2)O1", "Potency": "inconclusive [activator, partial curve, poor fit]"}, {"smiles": "CC(C)C(C(=O)NCc1ccccc1)N(CC1CCCO1)C(=O)CNS(=O)(=O)c1ccccc1", "note": "(configuration not stated)", "activity change, positive = activation": "inactive: -1.15%"}, {"smiles": "CC(C)CC(=O)N/C(N)=N/c1nc2ccccc2s1", "Potency": "inconclusive [activator, partial curve, poor fit]"}, {"smiles": "CC(=O)NC(=S)Nc1ccc(NC(=O)c2cccs2)cc1", "Potency": "inconclusive [activator, partial curve, poor fit]"}, {"smiles": "Cc1oc(/N=C/c2ccc(O)cc2O)c(C#N)c1C", "activity change, positive = activation": "inactive: -3.76%"}, {"smiles": "Cc1cc2cc(CNC(=O)c3ccc4c(c3)OCO4)ccc2[nH]1", "Potency": "inconclusive [activator, single point]"}, {"smiles": "S=C(NCCc1ccccc1)Nc1ccc(Cl)cc1Cl", "Potency": "inconclusive [activator, single point]"}, {"smiles": "CCOc1nc(C)ccc1-c1noc(-c2ccccn2)n1", "Potency": "inconclusive [activator, partial curve, poor fit]"}, {"smiles": "COc1ccc(-c2csc(NC(=O)CSc3nc(SC)ns3)n2)cc1", "Potency": "inconclusive [activator, partial curve, poor fit]"}, {"smiles": "Cc1cc(C)nc(-n2nc(C)c(Oc3ccccc3O)c2C)n1", "Potency": "inconclusive [activator, partial curve, poor fit]"}, {"smiles": "COc1ccc(CN2CCN(Cc3ccc(CO)o3)CC2CCO)cc1C", "note": "(configuration not stated)", "Potency": "inconclusive [activator, single point]"}, {"smiles": "Cn1c(=NC(=O)CS(=O)(=O)c2ccccc2)sc2ccccc21", "Potency": "inconclusive [activator, partial curve, poor fit]"}, {"smiles": "COc1cc(NC(=O)CSc2nc(=O)n(CCCN3CCOCC3)c3c2CCC3)cc(OC)c1", "activity change, positive = activation": "inactive: 2.32%"}, {"smiles": "COC(=O)Cn1c(CN(C)Cc2ccccc2)nc2c1c(=O)n(C)c(=O)n2C", "Potency": "inconclusive [activator, partial curve, poor fit]"}, {"smiles": "COc1ccc(-c2nc(C#N)c(NCCc3ccccc3)o2)cc1OC", "Potency": "inconclusive [activator, partial curve, poor fit]"}, {"smiles": "Cc1ccc(N(C(C)C(=O)Nc2cc(Cl)ccc2Oc2ccccc2)S(C)(=O)=O)cc1", "note": "(configuration not stated)", "activity change, positive = activation": "inactive: -3.29%"}, {"smiles": "Cc1cc(C(=O)Nc2nc3c(s2)CCCC3)no1", "Potency": "inconclusive [activator, partial curve, poor fit]"}, {"smiles": "Cc1cccc(Cc2nnc(CCC(=O)NCc3cn4ccccc4n3)o2)c1", "Potency": "inconclusive [activator, single point]"}]}]}
